The values that follow are results of earlier work, collected in patent US4456597A.

Like-named read-outs stand apart in the source and are kept apart here.

Series [1] concerns IF induction. Conditions: cited from earlier work; for IF inducing activity: constituents of Carthamus plants.
The conditions of series [2]: 56 °C, 5 hours; cited from earlier work.

As to carthamone, in series [1], the IF inducing activity result is “no IF inducing activity”.
In the case of `O=C(/C=C/c1ccc(O)cc1)C1=C(O)[C@](O)([C@@H]2O[C@H](CO)[C@@H](O)[C@H](O)[C@H]2O)C(O)=C(/C=C2/C(=O)C(C(=O)/C=C/c3ccc(O)cc3)=C(O)[C@@](O)([C@@H]3O[C@H](CO)[C@@H](O)[C@H](O)[C@H]3O)C2=O)C1=O` [carthamine], the IF inducing activity entry in series [1] is “no IF inducing activity”.
On to phytohemagglutinin, for which the “inactivation of IF-inducing activity on heating” value in series [2] is listed as “inactivated”. The values for the IF-inducing activity result in series [1] (background) and in series [1] (described in the literatures) were “extremely low IF-inducing activity” and “very weak IF-inducing activity”, respectively.
In the case of pokeweed mitogen, the “inactivation of IF-inducing activity on heating” value in series [2] is listed as “inactivated”. Also, the values for the IF-inducing activity entry in series [1] (background) and in series [1] (described in the literatures) were “extremely low IF-inducing activity” and “very weak IF-inducing activity”, respectively.
For the compound neocarthamine, the IF inducing activity entry in series [1] is “no IF inducing activity”.
